Reference: PubChem BioAssay AID1345083 (National Center for Advancing Translational Sciences (NCATS), 2018)
Where “and” joins values, the source holds several entries; their conditions need not be identical. Equal entries are not always repeated. About 6,200 (6.6%) of roughly 94,000 compounds were called active. The shares of active, inactive and inconclusive entries below differ from those in the screen. Calls come from the whole dose curve; as a rule, active = well fitted inhibition curve with a large enough effect; inconclusive = small, poorly fitted or top-dose-only effect; inactive = flat fitted curve, though single readings scatter. Potencies beside an inconclusive call are fits to weak or partial responses and may not hold up.

Assay: Cytotoxic Profiling in HEK 293 Cell Line of Diverse Libraries Using Quantitative High-Throughput Screening; note: nearly all actives have a fitted effect of over 60% in size
Settings: HEK 293 viability, ATP luminescence (CellTiter-Glo), 48-72 h; activity change, negative = cytotoxicity: at 115 µM (top of the series) unless noted; series mostly up to 115 µM
Method in brief: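 CellTiter-Glo luminescence (cellular ATP) was read after 48 or 72 hr of compound exposure at 37 degree Celsius. Cells were HEK 293 plated at 250 cells/well.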
% is set by controls: 0 for no effect and ±100 for the full control effect; potency is the fitted concentration of half-maximal effect; tags give direction and shape of the fitted curve.

| SMILES | Potency | activity change, negative = cytotoxicity | outcome |
| --- | --- | --- | --- |
| COc1ccc(C2=NOC3(CCN(Cc4cccc5ccccc45)C3)C2)cc1 (stereo not drawn) | inconclusive: 50.1 µM [inhibitor, partial curve, poor fit] | – | – |
| Cc1cc(=O)n(CC(=O)Nc2ccc(C(C)C)cc2)c(N2CCOCC2)n1 | inconclusive: 50.1 µM [inhibitor, partial curve, poor fit] | – | – |
| O=C(C1CCOC1)N1CC(Oc2ccc(-c3nc(-c4ccccc4)no3)cc2)C1 (stereo not drawn) | inconclusive: 14.1 µM [inhibitor, full curve, poor fit] | – | – |
| Cc1cccc(OCC(=O)N2CCC(c3n[nH]c(=O)n3-c3ccccc3)CC2)c1 | – | inactive: 12.4% | – |
| Cc1nc(CN2CC3(CCN(C)C3)c3cc(C(=O)Nc4ccc(F)cc4)ccc32)cs1 (stereo not drawn) | inconclusive: 79.4 µM [inhibitor, partial curve, poor fit] | – | – |
| COc1ccc(-c2[nH]ncc2CN2CCCCCNC(=O)CC2c2ccccc2)cc1 (stereo not drawn) | inconclusive: 50.1 µM [inhibitor, partial curve, poor fit] | – | – |
| Cn1cc(CN2CCCN(C(=O)c3ccco3)CC2)c(-c2ccc(C3CCCCC3)cc2)n1 | inconclusive: 50.1 µM [inhibitor, partial curve, poor fit] | – | – |
| c1ccc(CC2CCOC3(CCN(Cc4ccncc4)CC3)C2)cc1 (stereo not drawn) | inconclusive: 56.2 µM [inhibitor, partial curve, poor fit] | – | – |
| CC(C)NC(=O)C1CCCN(c2nccc(Nc3ccccc3F)n2)C1 (stereo not drawn) | inconclusive: 31.6 µM [inhibitor, partial curve, poor fit] | – | – |
| O=C(c1cccs1)N1CCN(c2cc(C(F)(F)F)ncn2)CC1 | inconclusive: 79.4 µM [inhibitor, partial curve, poor fit] | – | – |
| O=C(C1CCCN1C(=O)c1ccc(C(F)(F)F)cc1)N1CCC(c2nc3ccncc3[nH]2)C1 (stereo not drawn) | – | inactive: -3.03% | – |
| CCc1cc(=O)n(CC(=O)Nc2cccc(C(C)=O)c2)c(-c2ccccc2)n1 | active: 25.1 µM | – | – |
| Cc1noc(C)c1-c1cc2c(c(-c3cccc(CO)c3)c1)C(=O)N(C)C2 | inconclusive: 89.1 µM [inhibitor, partial curve] | – | – |
| Cc1n[nH]c(C)c1Cc1ccc(C(=O)NCC2Cn3cccc3CN2C)o1 (stereo not drawn) | – | – | inactive |
| Clc1ccc(CN2CCC3(CC2)CC(Cc2ccccc2)=NO3)cc1 | inconclusive: 50.1 µM [inhibitor, partial curve, poor fit] | – | – |
| CCC1(O)CCC12CCN(C(=O)c1ccc(OC)cc1)CC2 (stereo not drawn) | – | inactive: -12.1% | – |
| Cc1cccc(C(=O)N2C(C(=O)NC(C)c3ccccc3)COC23CCC(C)CC3)c1 (stereo not drawn) | inconclusive: 35.5 µM [inhibitor, partial curve, poor fit] | – | – |
| CCOC(=O)C1CCN(C(=O)c2ccc3nnc(C4CCCC4)n3c2)CC1 | – | inactive: -10.5% | – |
| CN1CC(=O)N(c2ccc(Cl)cc2)Cc2c1ncnc2N1CCc2ccccc2C1 | inconclusive: 89.1 µM [inhibitor, single point] | – | – |
| Cc1cc(CN2CC(Oc3ccc(F)cc3F)C2)no1 | – | inactive: -22.2% [at 172 µM] | – |
| CN(C)c1cc(=O)c2ccnc(Nc3cccnc3)c2o1 | – | – | inactive [at 230 µM] |

| SMILES | Potency | activity change, negative = cytotoxicity | outcome |
| --- | --- | --- | --- |
| Cc1ccc(NC(=O)c2ccc3nc(-c4cccc(C)n4)oc3c2)cc1 | inconclusive: 126 µM [inhibitor, single point] | – | – |
| COc1ccc(F)c(CN2CCCC(O)(CN(C)Cc3ccccc3)C2=O)c1 (stereo not drawn) | inconclusive: 89.1 µM [inhibitor, single point] | – | – |
| COCCOC1CCN(C(=O)c2ccc3[nH]ccc3c2)CC1 | inconclusive: 100 µM [inhibitor, single point] | – | – |
| CN(C)CCNC(=O)c1nc2nc(-c3ccccc3)c(-c3ccc(O)c(F)c3)cc2n1C | active: 70.8 µM | – | – |
| COc1ccc(CN2Cc3[nH]nc(-c4cccnc4OC)c3CC2=O)cc1 | active: 70.8 µM | – | – |
| Cc1ccc(S(=O)(=O)N2CC(c3nc(-c4ccncc4)no3)C2)cc1 | inconclusive: 44.7 µM [inhibitor, partial curve] | – | – |
| CCN(CC)C(=O)CCc1c(C)nn(-c2ccc(F)cc2)c1Oc1ccccc1C | inconclusive: 50.1 µM [inhibitor, partial curve, poor fit] | – | – |
| c1cnc2nc(-c3c[nH]c4ccccc34)[nH]c2c1 | inconclusive: 141 µM [inhibitor, partial curve, poor fit] and inconclusive: 126 µM [inhibitor, partial curve, poor fit] | – | – |
| COc1ccc(-c2ccc(C(=O)NCCCc3ccccc3)c(Cl)c2)nn1 | inconclusive: 50.1 µM [inhibitor, partial curve, poor fit] | – | – |
| Cn1cc(Cl)cc1C(=O)N1CCC2(CCCN(C3CCCC3)C2=O)C1 (stereo not drawn) | inconclusive: 63.1 µM [inhibitor, partial curve, poor fit] | – | – |
| CCN(CC)C(=O)Cc1cccn1-c1cccc(Cl)c1 | inconclusive: 100 µM [inhibitor, single point] | – | – |
| O=C(Nc1ccccc1Cl)N1CCCC2(C1)Nc1cccnc1NC2=NC1CCCC1 (stereo not drawn) | inconclusive: 50.1 µM [inhibitor, partial curve, poor fit] | – | – |
| C=CCNC(=O)C(NC(=O)c1ccccc1)C1CCN(C(=O)c2ccccc2C)CC1 (stereo not drawn) | – | inactive: -16.7% | – |
| COc1ccc(F)cc1-c1ccc(CN2CCC(NC(=O)CN(C)C)C2)cc1 (stereo not drawn) | inconclusive: 22.4 µM [inhibitor, full curve, poor fit] | – | – |
| Cc1noc(C)c1-c1cnc(Nc2ccccc2)c2c1CCO2 | inconclusive: 79.4 µM [inhibitor, partial curve] | – | – |
| COCc1nc(-c2ccc(OC3CN(C(=O)Cc4ccccc4)C3)cc2)no1 | inconclusive: 50.1 µM [inhibitor, partial curve, poor fit] | – | – |
| Cc1ccc(-c2cc3c(=O)n(CCNC(=O)c4cccc(Cl)c4)ccn3n2)cc1C | inconclusive: 39.8 µM [inhibitor, full curve, poor fit] | – | – |
| COc1ccc(F)c(CN2CCCC(O)(CN3CCC(C(C)C)CC3)C2=O)c1 (stereo not drawn) | inconclusive: 56.2 µM [inhibitor, partial curve, poor fit] | – | – |
| COc1ccc(-c2cc(-c3cccs3)nc3c(C)noc23)cc1OC | inconclusive: 100 µM [inhibitor, partial curve, poor fit] | – | – |
| COc1ccccc1C(=O)Nc1cc(-c2ccncc2)nn1C | inconclusive: 100 µM [inhibitor, partial curve] | – | – |
| COCCN1CC2CN(C(=O)CCCc3ccccc3)CC(C1)O2 | – | inactive: -3.42% | – |

| SMILES | Potency | activity change, negative = cytotoxicity | outcome |
| --- | --- | --- | --- |
| CCCc1nc(C(=O)N(C)CCSc2ccc(C)cc2)cs1 | inconclusive: 50.1 µM [inhibitor, partial curve, poor fit] | – | – |
| CC(C)CCNC(=O)C1Cn2cccc2C(=O)N1Cc1ccccc1 (stereo not drawn) | – | inactive: -12.1% | – |
| CNC(=O)[C@H]1C[C@H](Oc2ccccc2)CN1Cc1sccc1C | inconclusive: 89.1 µM [inhibitor, single point] | – | – |
| CN(C)c1nc(-c2ccncc2)nc2c1CCN(C(=O)c1ccn[nH]1)C2 | – | inactive: -10.4% | – |
| CC(=O)Nc1cccc(-c2cc3c(ccn3CC3CCN(C)CC3)c(N3CCOCC3)n2)c1 | – | inactive: -28.5% | – |
| O=C(c1nnc(CNCc2cnccn2)n1-c1ccccc1)N1CCC[C@@H]1C(c1ccccc1)c1ccccc1 | inconclusive: 56.2 µM [inhibitor, partial curve, poor fit] | – | – |
| COCCN1Cc2[nH]nc(-c3ccc(OC)c(F)c3)c2CC1=O | – | inactive: 2.01% [at 172 µM] | – |
| CN(Cc1nc2ccc(Cl)cc2[nH]1)C(=O)c1ccc2cccc(F)c2n1 | inconclusive: 89.1 µM [inhibitor, single point] | – | – |
| CNC(=O)c1cc(C2CC2)nc2onc(C3CCCN(C(=O)Cc4ccc(F)cc4)C3)c12 (stereo not drawn) | inconclusive: 100 µM [inhibitor, single point] | – | – |
| O=C1CC2(CCN(S(=O)(=O)c3cccs3)CC2)Oc2cc(Cl)ccc21 | inconclusive: 31.6 µM [inhibitor, partial curve] | – | – |
| O=C(c1cccs1)N1CCC2(CC1)N=C(c1ccccc1)NO2 | inconclusive: 89.1 µM [inhibitor, single point] | – | – |
| COCCn1ccc2c(C3=CCOCC3)nc(-c3cccc4cn[nH]c34)cc21 | active: 79.4 µM | – | – |
| COc1ccc(CNC(=O)C2CCN(c3cc(C(F)(F)F)nc(C)n3)CC2)cc1 | inconclusive: 56.2 µM [inhibitor, partial curve, poor fit] | – | – |
| N#Cc1cccc(-c2cn3cc(C(=O)NC4CCCCC4)nc3s2)c1 | inconclusive: 56.2 µM [inhibitor, partial curve, poor fit] | – | – |
| O=C1Cc2c(-c3ccccc3OCc3ccccc3)n[nH]c2CN1CC1CCOCC1 | inconclusive: 112 µM [inhibitor, single point] | – | – |
| CSc1cccc(NC(=O)C2CCN(c3cnc4nccnc4c3)CC2)c1 | active: 8.91 µM | – | – |
| Cc1nnc(-c2cc(-c3ccc(N4CCOCC4)cc3)ccn2)n1C1CCCCC1 | active: 79.4 µM | – | – |
| COc1cccc(-c2ccc(C(=O)N3CCC(NC(=O)Cc4ccc(F)cc4)CC3)cc2)c1 | inconclusive: 35.5 µM [inhibitor, partial curve, poor fit] and inconclusive: 44.7 µM [inhibitor, partial curve, poor fit] | – | – |
| O=C1CC(c2ccccc2)N(C(=O)CNC(=O)c2cc(CN3CCOCC3)on2)CCCCCN1 (stereo not drawn) | – | inactive: 0.771% | – |
| Cc1cccc(NC(=O)Nc2ccc(C)n(CC(=O)NC(C)C)c2=O)c1 | inconclusive: 89.1 µM [inhibitor, single point] | – | – |
| CCc1cc(C(=O)N2CCCC(c3nnc(Cn4ccnc4)n3C)C2)ccn1 (stereo not drawn) | – | inactive: -6.4% | – |
